# In the BET-seq Pho4 binding data (Le et al. 2018):
# This is one part of the list. The energies were worked out here from pooled read counts, against the library average; single values are noisy.
# Target: T1, Pho4 (S. cerevisiae) (UniProt P07270)
# T1 sequence: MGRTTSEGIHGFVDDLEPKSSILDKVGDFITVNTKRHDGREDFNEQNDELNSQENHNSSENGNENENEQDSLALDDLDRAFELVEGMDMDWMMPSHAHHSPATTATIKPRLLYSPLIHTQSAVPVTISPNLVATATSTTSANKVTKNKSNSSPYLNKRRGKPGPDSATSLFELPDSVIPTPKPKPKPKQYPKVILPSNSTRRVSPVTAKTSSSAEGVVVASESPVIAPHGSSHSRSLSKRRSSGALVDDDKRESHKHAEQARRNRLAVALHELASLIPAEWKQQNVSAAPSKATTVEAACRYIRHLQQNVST
# Experiment: relative binding free energy (BET-seq); higher = weaker binding
# Settings: reference: library average
row,Sequence,relative binding free energy
1,ACGTTCACGTGAAGGG,0.38 kcal/mol
2,AGGTACACGTGGCAGG,-0.05 kcal/mol
3,AGATTCACGTGGTGGG,0.19 kcal/mol
4,ATGAGCACGTGGAAAG,-0.01 kcal/mol
5,ATGGGCACGTGTATGT,-0.09 kcal/mol
6,GGTGGCACGTGCAAGC,0.09 kcal/mol
7,CGTGTCACGTGCGGTG,0.07 kcal/mol
8,TGTGCCACGTGGTTGG,-0.07 kcal/mol
9,GAGAGCACGTGGTGTA,-0.23 kcal/mol
10,GGTCACACGTGAAGTG,0.25 kcal/mol
11,GTGGGCACGTGGGGAG,-0.1 kcal/mol
12,AAGTGCACGTGCGTGT,-0.16 kcal/mol
13,GTGCGCACGTGGGGGT,-0.22 kcal/mol
14,GATTGCACGTGGTAGT,-0.01 kcal/mol
15,CGTAGCACGTGCGGTT,-0.06 kcal/mol
16,TATTTCACGTGGTGTG,0.13 kcal/mol
17,GTGGGCACGTGGGCTT,-0.11 kcal/mol
18,ATCGGCACGTGGTGTG,-0.21 kcal/mol
19,TGAGTCACGTGTCGTG,0.13 kcal/mol
20,TTTTACACGTGCTAGT,-0.07 kcal/mol
21,TATCGCACGTGATGTT,0.07 kcal/mol
22,GTCGACACGTGTGTAG,0.09 kcal/mol
23,ATATGCACGTGGTGTG,-0.1 kcal/mol

row,Sequence,relative binding free energy
1,TAGAGCACGTGCGTTT,-0.07 kcal/mol
2,TTGTACACGTGTTGTA,0.06 kcal/mol
3,TTGCTCACGTGGTCTA,0.14 kcal/mol
4,AGGTCCACGTGATGTG,0.07 kcal/mol
5,TTTTGCACGTGCTGGG,-0.04 kcal/mol
6,TATTGCACGTGCTTTG,-0.2 kcal/mol
7,GTCGGCACGTGTAGTT,0.08 kcal/mol
8,AAGGTCACGTGTATTT,0.06 kcal/mol
9,TGAGTCACGTGGAGTA,0.11 kcal/mol
10,AATGTCACGTGATGCA,0.2 kcal/mol
11,GCTTTCACGTGTTGCT,0.27 kcal/mol
12,CATGTCACGTGTACGG,0.13 kcal/mol
13,GGGAGCACGTGTATTG,-0.1 kcal/mol
14,CATATCACGTGATGTG,0.21 kcal/mol
15,TTAGTCACGTGTTCGG,0.12 kcal/mol
16,GGGCTCACGTGTAGTA,0.25 kcal/mol
17,TTGGACACGTGAGTGT,0.17 kcal/mol
18,TAGGGCACGTGAGTGG,0.05 kcal/mol
19,TAGAGCACGTGTGAGA,0.03 kcal/mol
20,GATGGCACGTGAATGT,0.15 kcal/mol
21,AGAATCACGTGCTGGT,0.25 kcal/mol
22,TGGGCCACGTGTAGAT,0.1 kcal/mol
23,GTACGCACGTGGAGTT,0.02 kcal/mol

row,Sequence,relative binding free energy
1,AGGTACACGTGTGATG,0.31 kcal/mol
2,TTGTGCACGTGGTCGC,-0.16 kcal/mol
3,GCTTGCACGTGCCTGG,0.12 kcal/mol
4,TTAGCCACGTGGGGAA,-0.22 kcal/mol
5,TTCTGCACGTGTGATG,0.21 kcal/mol
6,TGTTTCACGTGGCGGG,0.19 kcal/mol
7,GCTTTCACGTGGATTG,0.3 kcal/mol
8,ATTCTCACGTGTAGTA,0.35 kcal/mol
9,AAGTTCACGTGATTGG,0.43 kcal/mol
10,TGGCGCACGTGGTTTA,-0.01 kcal/mol
11,GTGACCACGTGTGAGG,0.13 kcal/mol
12,TTGGCCACGTGGCGTT,-0.27 kcal/mol
13,TGTATCACGTGGCTCG,0 kcal/mol
14,GTTACCACGTGGGATT,0.03 kcal/mol
15,TTGATCACGTGTTATT,0.07 kcal/mol
16,AGCGTCACGTGGGGCG,-0.03 kcal/mol
17,TTGGTCACGTGCATTG,0.1 kcal/mol
18,TGGGACACGTGATTTA,0.21 kcal/mol
19,AGGCTCACGTGTGGTA,0.06 kcal/mol
20,AGCATCACGTGCGGGT,0.02 kcal/mol
21,CGTGGCACGTGGTAAG,-0.19 kcal/mol
22,GGATACACGTGGATTT,0.12 kcal/mol
23,TGTGGCACGTGGGATC,-0.15 kcal/mol

row,Sequence,relative binding free energy
1,TGCTGCACGTGTCGGG,0.04 kcal/mol
2,AGGTACACGTGATGTG,0.09 kcal/mol
3,TTTCTCACGTGGGGGA,0.13 kcal/mol
4,GGGTGCACGTGGAGAA,-0.02 kcal/mol
5,GTGCGCACGTGTATTG,-0.04 kcal/mol
6,GATACCACGTGGTTGG,-0.02 kcal/mol
7,AAGGACACGTGATTGT,0.14 kcal/mol
8,AGTGTCACGTGTGTTA,0.09 kcal/mol
9,TTAGGCACGTGTTTTC,-0.05 kcal/mol
10,TATTTCACGTGTTAGT,0.35 kcal/mol
11,ATGGTCACGTGTAAAG,0.12 kcal/mol
12,AAGGGCACGTGGGGAG,-0.21 kcal/mol
13,TATTTCACGTGTGGTT,0.36 kcal/mol
14,TTGGGCACGTGAGGGC,0.16 kcal/mol
15,TAAGTCACGTGTGTTC,0.22 kcal/mol
16,TAATGCACGTGGTGTT,-0.11 kcal/mol
17,ATAGGCACGTGGGTTT,-0.19 kcal/mol
18,TATATCACGTGGACGT,0.16 kcal/mol
19,TTTGTCACGTGCCGTA,-0.07 kcal/mol
20,GCGTTCACGTGGTGTA,0.38 kcal/mol
21,TGATTCACGTGATGAT,0.28 kcal/mol
22,CGTTTCACGTGGGTCA,0.08 kcal/mol
23,AACATCACGTGGGTGG,-0.01 kcal/mol

row,Sequence,relative binding free energy
1,TTAATCACGTGTACTT,0.03 kcal/mol
2,CAGTGCACGTGTGGCG,0.03 kcal/mol
3,GGTAGCACGTGAACGG,0.13 kcal/mol
4,ATTTGCACGTGGATCA,0.2 kcal/mol
5,TTTGCCACGTGGTGGT,-0.19 kcal/mol
6,GAATTCACGTGGATGT,0.32 kcal/mol
7,AACGGCACGTGACGGG,0.09 kcal/mol
8,TTAGACACGTGATGAT,0.09 kcal/mol
9,TACATCACGTGAGGGG,0.14 kcal/mol
10,AAGGTCACGTGGGATG,0.17 kcal/mol
11,TTGGTCACGTGAGCGC,0.24 kcal/mol
12,TGGTTCACGTGGTATT,0.2 kcal/mol
13,GGCGACACGTGAGGAG,0.2 kcal/mol
14,TGTTGCACGTGCTAGA,-0.08 kcal/mol
15,GTGAGCACGTGGAGGG,-0.25 kcal/mol
16,TTTCACACGTGGTGGA,0.12 kcal/mol
17,TTGGTCACGTGCGGGA,0.08 kcal/mol
18,GTTGTCACGTGCGCGT,-0.02 kcal/mol
19,GTGGTCACGTGCGTTT,0.2 kcal/mol
20,GAGTGCACGTGACATG,0.2 kcal/mol
21,GGGTCCACGTGTATGG,0.09 kcal/mol
22,CGTTACACGTGAAGTT,0.25 kcal/mol
23,AATAGCACGTGTTAGG,-0.05 kcal/mol
